Laboratory results as given in article PMC4336329 (PLoS ONE, 2015).
Hit rate of the full screen: of about 310,000 compounds, about 2,200 (0.71%) showed an effect of 50% or more. The effect is printed as a negative number. The list shows a part of the results.

What follows are compounds tested against human ether-à-go-go-related gene (hERG) potassium channel (human, UniProt Q12809) (assay: primary screen, population patch clamp on CHO cells stably expressing hERG).
human ether-à-go-go-related gene (hERG) potassium channel, sequence (Q12809 whole entry, looked up): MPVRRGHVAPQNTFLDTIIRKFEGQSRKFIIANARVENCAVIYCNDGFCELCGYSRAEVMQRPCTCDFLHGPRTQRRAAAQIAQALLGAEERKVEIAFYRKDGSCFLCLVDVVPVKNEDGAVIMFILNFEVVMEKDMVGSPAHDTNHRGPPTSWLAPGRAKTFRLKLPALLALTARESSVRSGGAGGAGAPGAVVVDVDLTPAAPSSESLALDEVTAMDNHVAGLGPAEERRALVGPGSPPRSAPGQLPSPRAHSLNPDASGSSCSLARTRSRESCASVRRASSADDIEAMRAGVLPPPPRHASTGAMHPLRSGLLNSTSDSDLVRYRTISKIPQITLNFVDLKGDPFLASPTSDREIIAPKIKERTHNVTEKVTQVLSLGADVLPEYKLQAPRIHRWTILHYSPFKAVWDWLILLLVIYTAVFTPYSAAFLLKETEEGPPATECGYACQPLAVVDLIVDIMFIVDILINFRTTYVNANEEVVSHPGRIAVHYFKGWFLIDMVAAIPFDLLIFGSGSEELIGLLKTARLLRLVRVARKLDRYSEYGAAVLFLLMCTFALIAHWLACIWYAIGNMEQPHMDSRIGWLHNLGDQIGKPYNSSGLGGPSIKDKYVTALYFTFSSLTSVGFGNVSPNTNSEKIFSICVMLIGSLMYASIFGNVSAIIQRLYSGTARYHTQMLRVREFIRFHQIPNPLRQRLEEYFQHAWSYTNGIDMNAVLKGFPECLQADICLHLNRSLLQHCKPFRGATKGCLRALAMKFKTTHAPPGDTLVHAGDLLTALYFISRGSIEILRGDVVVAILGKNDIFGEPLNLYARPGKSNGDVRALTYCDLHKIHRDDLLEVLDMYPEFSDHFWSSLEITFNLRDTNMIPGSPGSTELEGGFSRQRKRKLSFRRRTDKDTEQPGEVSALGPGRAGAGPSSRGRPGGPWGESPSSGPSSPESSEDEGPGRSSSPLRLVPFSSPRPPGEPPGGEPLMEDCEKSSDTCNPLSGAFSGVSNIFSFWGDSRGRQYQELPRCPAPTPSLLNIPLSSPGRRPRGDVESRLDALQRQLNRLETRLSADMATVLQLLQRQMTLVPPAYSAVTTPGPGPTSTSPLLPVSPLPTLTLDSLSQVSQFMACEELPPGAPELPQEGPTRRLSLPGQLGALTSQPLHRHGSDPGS

Structure (SMILES) | hERG current change (%, negative = inhibition) at 1uM [%]
O=C(Nc1nnc(C2CCCCC2)s1)C1CC(=O)N(c2ccccc2)C1 (stereo not drawn) | 9.99
CC(=O)Nc1ccc(NC(=O)C2CCC(N3C(=O)C4C5C=CC(C6CC56)C4C3=O)CC2)cc1 (stereo not drawn) | 11.5
Cc1cccc(C)c1OCC(=O)N(Cc1ccco1)C1CCS(=O)(=O)C1 (stereo not drawn) | -3.78
O=C(Oc1ccccc1)c1ccc2nccnc2c1 | 3.76
NC(=O)CC(NC(=O)Cc1ccc(Br)cc1)c1ccc(N2CCC(N3CCCC3)CC2)c([N+](=O)[O-])c1 (stereo not drawn) | 9.26
Cn1cc(Br)c(-c2cccc(NC(=O)CCC(=O)O)c2)n1 | 5.72
CCOc1cc2[nH]c(=S)n(Cc3ccc(C(=O)NCCN(CC)CC)cc3)c(=O)c2cc1OCC | 12.1
CN1Cc2cccc3c2C(Cc2ccccc2S3)C1.O=C(O)/C=C\C(=O)O (stereo not drawn) | 11.3
Cc1c(NC(=O)c2ccc(CC(C)C)o2)c(=O)n(-c2ccccc2)n1C | 14
O=S1(=O)CCN2N=C(C3CC3)SC2=N1 | 15
COc1cc(NC(=O)COc2cccc3c2OC(C)(C)C3)cc(OC)c1OC | 9.18
Nc1nonc1-n1nnc(C(=O)N/N=C/c2ccccc2)c1CN1CCc2ccccc21 | 12.2
Cc1nc2ncnn2c(C)c1CCC(=O)O | -1.73
Cc1cccc(OCC(=O)NCCCNC(=O)c2ccccn2)c1 | 5.83
CCOc1ccccc1C(=O)OCC(=O)Nc1cc(Cl)ccc1Oc1ccccc1 | 7.72
CCOc1ccc(CN2C(=O)c3ccccc3C2=O)cc1C(=O)N1CCC(C(N)=O)CC1 | 12
Cc1cccc(/C(N)=N/OC(=O)c2ccccc2Cl)c1 | 2.11
CN1C(=O)C(O)(c2nnc(-c3ccccc3)o2)c2ccccc21 (stereo not drawn) | 8.19
O=C(COC(=O)c1cnccn1)NCCc1ccc(Cl)cc1Cl | 9.09
O=C(O)c1cccc(-c2nnn(Cc3ccccc3)n2)c1 | 13.2
COc1ccccc1C(=O)N/C(=C/c1cccc([N+](=O)[O-])c1)C(=O)Nc1cccc(C(=O)O)c1 | 14.2
Cc1coc2c1C(=O)C(=O)c1c-2ccc2c(C)cccc12 | 10
COc1ccc(/C=C2\NC(=O)C(C=NCc3ccccc3)=C2O)cc1 | 3.4

Structure (SMILES) | hERG current change (%, negative = inhibition) at 1uM [%]
O=C(CSc1ncccn1)NN=C1CCCCCC1 | 5.63
Cc1cc(C(=O)CN2C(=O)C(=O)N(Cc3ccccc3)C2=O)c(C)n1CC1COc2ccccc2O1 (stereo not drawn) | 14.3
O=S(=O)(Nc1cccc(Cl)c1)c1ccc2oc(=S)[nH]c2c1 | 18
Cc1ccc(NS(=O)(=O)c2ccc3c(c2)n(C)c(=O)n3C)cc1 | 0.0392
CC(C)C1N=C2c3ccccc3N=C(SCC(=O)c3ccc(O)c(O)c3)N2C1=O (stereo not drawn) | -8.39
COc1ccccc1/C=C/C=N/N1CCN(Cc2ccccc2)CC1 | 8.51
COc1cc2c(cc1OC)[C@H](C)N(C(=O)COc1ccccc1)CC2 | 7.65
CCOC(=O)c1ccccc1NC1c2ccccc2C(=O)N1c1ccc(C)cn1 (stereo not drawn) | 10.3
Cc1nc2ccccc2n1CC(=O)NC1CCCCCC1 | -6.18
Cc1sc(N)c(C(=O)c2ccccc2)c1C | 8.07
CCC(CC)C(=O)Nc1nnc(S(=O)(=O)N2c3ccccc3CC2C)s1 (stereo not drawn) | 6.99
Cc1cc(OCC(=O)NC2CCN(Cc3ccccc3)CC2)c2c(C)cc(=O)oc2c1 | -4.74
COCCNC(=O)Cn1cnc2sc(C)c(S(=O)(=O)N3CCN(c4ccccc4OC)CC3)c2c1=O | 11.3
CCNC(=O)NS(=O)(=O)c1cnccc1Nc1cccc(Cl)c1 | 16.2
N#Cc1cc2cc3c(cc2nc1N1CCOCC1)OCO3 | 9.18
CCC(=NCCO)c1c(O)n(-c2ccc(Cl)cc2)c(=O)[nH]c1=O | 19.4
O=[N+]([O-])c1cnccc1Nc1ccccc1 | 10.6
COc1ccccc1N1CCN(c2nc3ccccn3c(=O)c2C=O)CC1 | 7.81
O=C(NCCc1ccccc1)C1CCN(S(=O)(=O)N2CCCC2)CC1 | 14.9
CSc1nc(-c2ccc(N(C)C)cc2)c(C#N)c(=O)n1C | 6.38
CCOc1cc(OCC)cc(C(=O)NCCCN2CCOCC2)c1 | 10.3
CC(=O)N1CCN(c2cc3c(cc2F)c(=O)c(C(=O)O)cn3C2CC2)CC1 | 5.39
